{"source": "PubChem BioAssay AID1466", "about": "(National Center for Advancing Translational Sciences (NCATS), 2008)", "note": "Hit rate of the full screen: of about 200,000 compounds, about 10 (0.005%) were called active. The shares of active, inactive and inconclusive entries below differ from those in the screen. Calls come from the whole dose curve; as a rule, active = well fitted inhibition curve with a large enough effect; inconclusive = small, poorly fitted or top-dose-only effect, or effect the other way, or another doubt; inactive = no such curve, though single readings can be large or run the other way. Potencies of inconclusive entries are left out as doubtful fits. Potency is the fitted concentration of half-maximal effect; tags give direction and shape of the fitted curve."}
{"biological_target": "Lysosomal alpha-glucosidase (Homo sapiens) (UniProt P10253)", "assay": "qHTS Assay for Inhibitors of Human alpha-Glucosidase as a Potential Chaperone Treatment of Pompe Disease;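 for activity change, negative = inhibition: plate controls were uninhibited enzyme wells for no effect and no-enzyme background for full effect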", "conditions": "purified human GAA, 4-MU-alpha-glucoside fluorescence; activity change, negative = inhibition: at 76.9 µM (top of the series) unless noted", "from_the_text": "NIH Chemical Genomics Center [NCGC] NIH Molecular Libraries Probe Production centers Network [MLPCN] MLPCN Grant: 1R03MH084841-01 Assay Submitter (PI): Wei Zheng NCGC Assay Overview: Alpha-glucosidase is responsible for hydrolysis of terminal, non-reducing 1,4-linked alpha-D-glucose residues with release of alpha-D-glucose. It is a lysosomal hydrolase that is required for the degradation of a small percentage (1-3%) of cellular glycogen in human. Deficiency of this enzyme results in glycogen-storage disease type II (GSDII), also referred to as Pompe disease, an autosomal recessive disorder. Structurally normal glycogen is accumulated in lysosomes and cytoplasm in affected patients, primarily in muscle tissues. Excessive glycogen storage within lysosomes may interrupt normal functioning of other organelles and leads to cellular injury. In turn, this leads to enlargement and dysfunction of the entire organ involved (eg, cardiomyopathy and muscle weakness). It has reported that the improper folding and trafficking of alpha-glucosidase resulting from the genetic mutations may account for a significant number of Pompe patients. […] We optimized this alpha-glucosidase assay in 1536-well plate format for identifying the novel small molecule inhibitors with the structures other than the sugar analogs in order to develop the new pharmacological chaperones.\nNCGC Assay Protocol Summary: This is a fluorogenic enzyme assay with 4-methylumbelliferyl-alpha-D-[…] as the substrate and human alpha-glucosidase as the enzyme preparation. Upon the hydrolysis of this fluorogenic substrate, the resulting product, 1. 4-methyllumbelliferone, can be excited at 365 nm and emits at 440 nm which can be detected by a standard fluorescence plate reader. Data were normalized to the controls for basal activity (without enzyme) and 100% activity (with enzyme). In the AC50 values were determined from concentration-response data modeled with the standard Hill equation. Assay buffer: 50 mM citric acid (titrated with potassium phosphate to pH 5.0), 0.005% Tween-20, pH 5.0. (pH 5.0 is an optimal condition for this enzyme assay) 1536-well assay protocol for the human alpha-glucosidase: (1) Add 2 ul/well of enzyme (4 nM final) (2) Add 23 nL compounds in DMSO solution. The final titration was 0.7 nM to 77 uM. (3) Add 1 ul of substrate (400 uM final) (4) Incubate at room temperature for 20 min. (5) Add 2 ul stop solution (1M NaOH and 1M Glycine mixture, pH 10) (6) Detect the assay plate in a ViewLux plate reader (PerkinElmer) with Ex=365 nm and Em=440nm. Keywords: Alpha-glucosidase, Pompe Disease, pharmacological chaperone, chaperone therapy, high throughput screening, alpha-glucosidase inhibitor, MLSMR, MLSCN, NIH Roadmap, qHTS and NCGC"}
{"smiles": "C/C(=N\\NC(=O)c1ccc(Cl)c(Cl)c1)c1cccc(NC(=O)C(C)C)c1", "Potency": "inconclusive [inhibitor, single point]"}
{"smiles": "O=C(CN1C(=O)NC2NC(=O)NC21)N/N=C/c1ccccc1O", "note": "(stereo unspecified)", "Potency": "inconclusive [activator, single point]"}
{"smiles": "O=c1[nH]c(=O)c2ncc(-c3ccc(Cl)cc3)nc2[nH]1", "Potency": "inconclusive [activator, partial curve]"}
{"smiles": "Cc1ccc(C(=O)N/C(=C\\c2ccco2)C(=O)NCC2CCCO2)cc1C", "note": "(stereo unspecified)", "Potency": "inconclusive [inhibitor, single point]"}
{"smiles": "Cc1cc(C)nc(SCc2ccc(F)cc2)n1", "activity change, negative = inhibition": "inconclusive: 19.4% [activator]"}
{"smiles": "COC(=O)CCN(C(=O)c1ccc(C)c([N+](=O)[O-])c1)c1ccccn1", "Potency": "inconclusive [inhibitor, single point]"}
{"smiles": "COc1ccc(S(=O)(=O)Cc2ccc(C(=O)N3CCN(C4CCCCC4)CC3)o2)cc1", "Potency": "inconclusive [inhibitor, single point]"}
{"smiles": "COc1cc(/C=N/NC(=O)c2cccnc2)ccc1OCC(=O)Nc1ccc(C)cc1", "activity change, negative = inhibition": "inconclusive: 105% [activator]"}
{"smiles": "O=c1nc2sc3ccccc3n2c(=O)n1-c1ccc(Cl)cc1", "Potency": "inconclusive [activator, full curve, poor fit]"}
{"smiles": "O=C(/C=C/c1ccc(O)c(O)c1)OC1C(O)CC(OC(=O)/C=C/c2ccc(O)c(O)c2)(C(=O)O)CC1O", "note": "(stereo unspecified)", "Potency": "inactive"}
{"smiles": "O=C(CSc1ccc([N+](=O)[O-])cn1)Nc1ccc2c(c1)OCCO2", "activity change, negative = inhibition": "inconclusive: -15.9% [inhibitor]"}
{"smiles": "c1ccc(-c2nn3c(Cn4cnc5ccccc54)nnc3s2)cc1", "Potency": "inactive"}
{"smiles": "CSc1cc(C)n(-c2ccccc2C)c(=S)c1C(C)=O", "Potency": "inconclusive [inhibitor, single point]"}
{"smiles": "CC(=O)c1ccc(N=C2SCCCN2C(=O)C2CCCCC2)cc1", "Potency": "inactive"}
{"smiles": "Cc1cccc(C)c1NC(=S)N(CCN(C)C)Cc1cccs1", "Potency": "inconclusive [activator, single point]"}
{"smiles": "O=C(CC1Sc2ccccc2NC1=O)OCc1cc(=O)oc2cc(O)ccc12", "note": "(stereo unspecified)", "Potency": "inconclusive [activator, partial curve]"}
{"smiles": "O=C1CC(=O)Nc2cc(S(=O)(=O)N3CCN(c4cccc(C(F)(F)F)c4)CC3)ccc2N1", "Potency": "inconclusive [inhibitor, partial curve]"}
{"smiles": "O=C(Nc1ccc(F)cc1)c1csc(Cc2ccccc2)n1", "Potency": "inconclusive [inhibitor, partial curve]"}
{"smiles": "COC1=C(N)C(=O)c2nc(-c3nc(C(=O)O)c(C)c(-c4ccc(OC)c(OC)c4O)c3N)ccc2C1=O", "activity change, negative = inhibition": "inactive: 1.97% [at 15.4 µM]"}
{"smiles": "COc1cc(OC)c(C2CC(=O)N3CN(C)CSC3=C2C#N)cc1OC", "note": "(stereo unspecified)", "Potency": "inconclusive [inhibitor, single point]"}
{"smiles": "CCCCC(=O)Nc1ccc(C(=O)N2CCN(C)CC2)cc1", "Potency": "inconclusive [inhibitor, partial curve]"}
{"smiles": "Nc1nc[nH]c(=O)c1N=Cc1ccccc1", "activity change, negative = inhibition": "inconclusive: 16.1% [activator]"}
{"smiles": "CCCCOCCCNC(=O)c1cccc(OC)c1", "Potency": "inconclusive [inhibitor, single point]"}
{"smiles": "CCOc1ccc(S(=O)(=O)n2ccc(C)n2)c2ccccc12", "Potency": "inconclusive [inhibitor, partial curve, poor fit]"}
{"smiles": "CSc1ccc(-c2cc(=O)c3ccccc3o2)cc1", "Potency": "inconclusive [activator, partial curve]"}
{"smiles": "O=C(NC1CCCCC1)c1cc(Cl)nc2ccccc12", "Potency": "inconclusive [activator, single point]"}
{"smiles": "CCCc1cc(=O)oc2c(C)c(O)c(CN3CCCCC3)cc12", "Potency": "inconclusive [activator, partial curve]"}
{"smiles": "COc1ccc(C(=O)c2c(C)oc3cc([N+](=O)[O-])c(O)c([N+](=O)[O-])c23)cc1", "Potency": "inconclusive [inhibitor, single point]"}
{"smiles": "CC(=O)Nc1c(C(=O)O)[nH]c2ccccc12", "Potency": "inactive"}
{"smiles": "CC1CN(S(=O)(=O)c2cccc(-c3cn4cccnc4n3)c2)CC(C)O1", "note": "(stereo unspecified)", "Potency": "inconclusive [activator, partial curve]"}
{"smiles": "Cc1ccc(NC(=O)c2ccc(Nc3c([N+](=O)[O-])cc([N+](=O)[O-])cc3[N+](=O)[O-])cc2)cc1", "Potency": "inconclusive [inhibitor, partial curve]"}
{"smiles": "O=C(CN1CCC(n2nnc3cc(C(F)(F)F)ccc32)CC1)Nc1ccc2c(c1)CCC2", "Potency": "inconclusive [inhibitor, single point]"}
{"smiles": "Cc1cccc(OCc2nc(C#N)c(N3CC(C)CC(C)C3)o2)c1", "note": "(stereo unspecified)", "activity change, negative = inhibition": "inconclusive: -19.4% [inhibitor]"}
{"smiles": "CCN(CC)S(=O)(=O)c1cccc(C(=O)NCCCN2CCOCC2)c1", "Potency": "inconclusive [inhibitor, partial curve, poor fit]"}
{"smiles": "O=C(O)/C=C/c1cn(Cc2ccccc2)nc1-c1cccs1", "activity change, negative = inhibition": "inconclusive: -16.9% [inhibitor]"}
{"smiles": "CCC1=NN(C(=O)c2ccc(Br)cc2)C(O)(c2ccc(C)cc2)C1", "note": "(stereo unspecified)", "Potency": "inconclusive [inhibitor, single point]"}
{"smiles": "O=C(CN1CCN(S(=O)(=O)c2ccc(Br)cc2)CC1)Nc1ccc2c(c1)OCCO2", "Potency": "inconclusive [inhibitor, partial curve]"}
{"smiles": "COc1ccc(Nc2c(-c3ccc(C)cc3)nc3cnccn23)cc1", "Potency": "inconclusive [inhibitor, single point]"}
{"smiles": "CSc1nn(-c2ccc(C(=O)OC(C(=O)NC(N)=O)C(C)C)cc2)c(=S)s1", "note": "(stereo unspecified)", "Potency": "inconclusive [inhibitor, single point]"}
{"smiles": "N=c1c(C(=O)NC2CCCC2)cc2c(=O)n3ccccc3nc2n1CCN1CCOCC1", "activity change, negative = inhibition": "inconclusive: 14.1% [activator]"}
{"smiles": "CCCCNC(=O)/C(C#N)=C/c1cccnc1", "activity change, negative = inhibition": "inconclusive: 15.3% [activator]"}
